Biological target: the molecule itself
Assay: co-sedimentation

B1: wild-type connexin 43 (natural protein)
chain: not shown
- stoichiometry N: 6

Reference: article PMC3252639 (The Biochemical journal, 2011)
